In PubChem BioAssay AID488969 (Vanderbilt High Throughput Screening Facility, 2010):
Over roughly 110,000 compounds, “z-score” has its median near -0.1; the highest 2% begin near 2. The list shows a part of the results. Activity calls are given as the source filed them.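 The calls were made as follows: active = z-score in the third read window above 3 or below -3; inactive = the rest.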

molecular target: Metabotropic glutamate receptor 8 (Rattus norvegicus) (UniProt P70579); assay: mGluR8 Gi/Go-coupled signaling modulation – cell-based, rat, thallium flux, HTS, primary screen (AID 488969); conditions: HEK293 rat mGluR8, GIRK (G protein-gated inwardly rectifying potassium channel) thallium flux, FluoZin2; at 10 µM; stronger effect = higher value; submaximal glutamate (EC20) added with thallium
UniProt P70579, sequence (P70579 whole entry, looked up): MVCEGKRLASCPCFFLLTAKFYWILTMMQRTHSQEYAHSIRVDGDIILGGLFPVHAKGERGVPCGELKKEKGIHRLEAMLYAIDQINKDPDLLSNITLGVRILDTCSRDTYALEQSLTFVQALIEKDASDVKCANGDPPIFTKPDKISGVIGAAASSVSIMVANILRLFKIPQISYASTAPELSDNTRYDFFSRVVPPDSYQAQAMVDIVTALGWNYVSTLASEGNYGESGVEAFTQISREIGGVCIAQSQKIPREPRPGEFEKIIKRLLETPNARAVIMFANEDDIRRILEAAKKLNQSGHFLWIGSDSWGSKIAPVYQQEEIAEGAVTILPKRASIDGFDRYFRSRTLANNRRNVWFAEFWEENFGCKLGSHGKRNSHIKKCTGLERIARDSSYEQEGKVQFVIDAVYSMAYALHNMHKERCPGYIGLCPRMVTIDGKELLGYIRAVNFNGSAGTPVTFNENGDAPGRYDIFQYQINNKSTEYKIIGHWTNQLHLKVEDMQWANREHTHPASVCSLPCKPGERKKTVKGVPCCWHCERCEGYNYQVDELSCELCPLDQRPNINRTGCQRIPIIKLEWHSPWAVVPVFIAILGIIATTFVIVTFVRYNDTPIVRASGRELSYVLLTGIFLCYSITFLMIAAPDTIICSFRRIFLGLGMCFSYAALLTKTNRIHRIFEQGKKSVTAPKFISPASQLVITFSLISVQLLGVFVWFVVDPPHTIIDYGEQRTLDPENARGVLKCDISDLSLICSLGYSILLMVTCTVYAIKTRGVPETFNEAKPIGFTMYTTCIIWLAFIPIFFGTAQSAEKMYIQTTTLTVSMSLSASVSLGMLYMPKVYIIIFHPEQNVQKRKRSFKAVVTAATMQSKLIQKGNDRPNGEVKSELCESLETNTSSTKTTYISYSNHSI

Compound | z-score
C=CCN1C(=O)C(Cc2ccc(OC)cc2)S/C1=N/N=C/c1ccco1 (stereo not given) | -0.0726
CCCc1cc(N2CCCC(C(=O)Nc3cc(Cl)ccc3OC)C2)n2ncnc2n1 (stereo not given) | -0.857
O=C(c1ccc(F)cc1)N1CCN(C2CC3CCC2C3)CC1 (stereo not given) | 0.268
C=C(C)CSc1nnc(-c2ccccc2)n1N | 0.148
Cn1/c(=N/N=C/c2ccc(Cl)c([N+](=O)[O-])c2)sc2ccccc21 | 0.0387
O=C(CSc1nnc(-c2ccc3c(c2)OCCO3)o1)N1CCCC1 | 1.13
COc1ccc(C(=O)NCc2nnc(SCC(=O)N3CCc4ccccc43)n2Cc2ccccc2)cc1 | -0.0589
COc1cccc(/C=N/NC(=O)c2ccc(OCc3cccc(Br)c3)cc2)c1 | 0.138
COc1ccccc1-c1noc(-c2ccccc2C(=O)Nc2ccccc2)n1 | -0.572
CN(c1ccc(C(=O)Nc2cccnc2)cc1)S(C)(=O)=O | 0.0155
COc1ccccc1Oc1ccc(S(=O)(=O)N2CCOCC2)cc1S(=O)(=O)N1CCOCC1 | -0.453
C=C(C)c1cccc(C(C)(C)NC(=O)N(Cc2ccccc2)Cc2ccco2)c1 | -0.101
O=C1C(NS(=O)(=O)c2cccs2)=C(N2CCN(c3ccccc3)CC2)C(=O)c2ccccc21 | 0.0931
COc1ccc(OC)c(NC(=O)c2cc(-c3cc(Cl)ccc3O)n[nH]2)c1 | 0.806
Cc1ccccc1-n1nc(C)c2cc(C(=O)N3CCN(S(=O)(=O)c4ccc(Cl)cc4)CC3)sc21 | -0.194
COC(=O)N/N=C/c1c[nH]c2ccccc12 | -0.591
COc1ccc(CCNC(=O)COc2ccc(S(=O)(=O)N3CCOCC3)cc2)cc1OC | 0.119
c1cnc(SCCOc2ccc3c(c2)CCC3)nc1 | 0.191
CN(CCO)c1c2c(nc3cc(-c4cccc(F)c4)nn13)CCCC2 | -0.479
Cc1ccc(S(=O)(=O)N2CCN(C(=O)CN3CCCCC3)C2)cc1 | -0.162
c1ccc2c(c1)ncn2CCCCOc1ccc2c(c1)CCC2 | -0.463
Cc1cc(-c2ccccc2)nc2cc(C(=O)N(Cc3ccccc3)Cc3ccccc3)nn12 | 0.525

Compound | z-score
CCCCN1C(=O)CC(C(=O)O)C1c1ccc(OC)cc1 (stereo not given) | -0.572
O=C(NC(=S)Nc1ccc(S(=O)(=O)NC2CCCCC2)cc1)c1cccs1 | 0.16
CCOC(=O)c1sc(NC(=O)Nc2ccc(F)cc2)nc1C | -0.238
CC(C)Oc1cccc(-c2cc(C(=O)N3CCN(c4ncccn4)CC3)c3ccccc3n2)c1 | -0.273
CCCCC(=O)Nc1ccc(C(=O)Nc2ccc(S(=O)(=O)N3CCCC3)cc2)cc1 | -0.419
Cc1ccc(S(=O)(=O)N2CCC[C@H]2C(=O)OC(C)C(=O)Nc2ncc(Cl)cc2Cl)cc1 (stereo not given in full) | 0.0703
O=C(N/N=C/CCc1ccccc1)c1ccc(CN2c3cccc4cccc(c34)S2(=O)=O)cc1 | -0.0365
CCC(C(=O)OCC(=O)Nc1ccc(Cl)c(S(=O)(=O)N(C)C)c1)c1ccccc1 (stereo not given) | -2.23
CCC1CCCCN1C/C=C/c1ccccc1[N+](=O)[O-] (stereo not given) | 0.136
Cc1ccccc1C(=O)N=c1c(C#N)cc2c(=O)n3cccc(C)c3nc2n1Cc1ccco1 | -0.244
O=C(c1cncc(Br)c1)N1CCN(c2ccc(N3CCOCC3)nn2)CC1 | 0.0127
CCCCC(=O)NC(N1CCCCC1)C(Cl)(Cl)Cl (stereo not given) | -0.392
Cc1ccc(O)c(NC(=O)c2cccc(NC(=O)c3ccco3)c2)c1 | -0.336
COc1cc(CNc2ccc(N3CCCC3)cc2)ccc1OCc1ccccc1 | active: 3.82
CC(C)CC(=O)Nc1cc2nn(-c3ccccc3)nc2cc1Cl | 0.0416
CCOC(=O)c1c(-c2ccccc2)oc2cc(CN(C)C)c(O)c(CN(C)C)c12 | 0.295
Cn1c(-c2ccc(Br)o2)nc2cc(Br)ccc21 | -0.104
COc1ccc(CCNc2nc(-c3cccnc3)cs2)cc1OC | -0.451
CC(Sc1nc(-c2ccc(F)cc2)cs1)C(=O)Nc1ccc(Cl)cn1 (stereo not given) | -0.19
CCOC(=O)c1c(C)nc2sc(C(=O)Nc3ccc(C(C)=O)cc3)c(N)c2c1-c1ccc(OC)cc1 | -0.136
CCC(NC(=O)Nc1ncccc1C)(C(F)(F)F)C(F)(F)F | 0.0143
Cn1cccc1C(=O)NC(=O)COC(=O)c1ccccc1Sc1ccccc1C#N | 0.0541

Compound | z-score
Cc1cc(C)nc(SCNC(=O)c2ccccc2)n1 | 0.44
CNC(=S)N/N=C/c1cn(CCOc2ccccc2OC)c2ccccc12 | -0.1
CCOC(=O)C(Cc1ccccc1)C(=O)Nc1ccc(N(CC)CC)cc1 (stereo not given) | 0.385
O=C(Nc1nc2ccc(S(=O)(=O)N3CCCCC3)cc2s1)c1cccnc1 | -0.427
O=C(CSc1nnc(-c2cccnc2)n1-c1ccc(SC(F)F)cc1)N1CCCc2ccccc21 | 0.0656
CC(CNC(=O)C(C)C)NC(=O)C(C)C (stereo not given) | -0.447
Cc1cccc(OCc2nc3c4c(ncn3n2)-c2ccccc2CC42CCCC2)c1 | -0.328
COC(=O)Cn1nc(-c2ccccc2)c2ccccc21 | -0.352
CCc1nnc(NC(=O)CSc2nnc(-c3ccc(OC)cc3)n2C)s1 | -0.389
O=C(O)C1CC=CCC1C(=O)NCCc1ccccc1 (stereo not given) | -0.399
CCOC(=O)c1c(C)[nH]c(C2=NNC(=Nc3cccc(Cl)c3)SC2)c1C | -0.064
NC1=C(c2ccc([N+](=O)[O-])cc2)C(=O)CO1 | -0.176
O=C(Nc1ccc2c(c1)Cc1ccccc1-2)c1ccc(Br)o1 | 0.178
N#CCSc1nnc(COc2cccc3ccccc23)n1-c1ccccc1 | -0.135
COc1ccc(N=CC2=C(O)c3ccccc3C2=O)cc1 | -0.288
O=C(CCC(=O)Nc1ccccc1Cl)NNC(=O)c1ccco1 | 0.174
COC(=O)CSc1nc(-c2cccs2)ccc1C#N | -0.281
Cc1ccc(-c2nc(CS(=O)CC(=O)NCCN3CCCC3)c(C)o2)cc1 (stereo not given) | -0.256
Cn1c(SCC(=O)N2CCCc3ccccc32)nc2ccccc2c1=O | -0.254
O=c1oc2ccccc2c(Nc2ccc(O)cc2)c1[N+](=O)[O-] | -0.0699
COc1cc(-c2nnc(SCC(=O)Nc3cc(C)on3)n2C)cc(OC)c1O | -1.05
COc1ccc(CCNC(=O)CN(C)S(=O)(=O)c2cccs2)cc1OC | -0.0674

Compound | z-score
NS(=O)(=O)c1ccc(N2N=C(c3ccccc3)CC2c2cccc(F)c2)cc1 (stereo not given) | 0.17
CCN1C2=NCCCN2c2ccccc21 | 0.0152
CCNc1sc(C(=O)c2cccs2)c(N)c1C#N | -0.708
Cc1cc(NS(=O)(=O)c2ccc(OCCNS(C)(=O)=O)cc2)no1 | 0.204
C=CC(O)Cc1c(C)n[nH]c1C (stereo not given) | 0.463
O=C(CNc1ccccc1)Nc1ccc(F)cc1 | 0.549
CC1(C)Cc2c(C#N)c(N3CCOCC3)nc(-c3ccccc3)c2CO1 | -0.569
Cc1cccc(-c2c3c(=O)n(C)c(=O)n(C)c3cn2-c2ccccc2O)c1 | -0.0561
CCCn1c2ccccc2c2nnc(SCC(=O)Nc3ncccn3)nc21 | -0.434
CCOC(=O)N1CCN(c2c(NCC3CCCO3)c(=O)c2=O)CC1 (stereo not given) | -0.352
CC(C)NC(=S)NC(=O)c1ccc(Cl)cc1Cl | active: 13.8
CCN(CC)C(=S)Sc1c(-c2ccccc2)c2cc(Cl)ccc2[nH]c1=O | 0.274
Cc1occc1C(=O)Nc1cc(=O)n(C)c(=O)n1C | 0.662
CN1CCc2nc(SCCOc3ccccc3)c(C#N)cc2C1 | -1.48
COc1cc([C@H]2[C@@H]3CCCC[C@]3(O)CCN2CC(=O)Nc2ccc(C)cc2C)ccc1O | -0.349
O=C(O)Cc1csc(NC(=O)c2ccco2)n1 | 0.104
O=C(/C=C/c1ccco1)Nc1cccc(-c2nc3ccccc3[nH]2)c1 | -0.353
Cn1cc(Cl)c(C(=O)OCC(=O)Nc2nc(-c3ccc(Br)cc3)cs2)n1 | 0.00326
CCOC(=O)C(CCCCOc1cccc(CC)c1)C(=O)OCC | active: 3.18
Cc1sc(N)nc1-c1cccs1 | -0.368
COc1ccccc1NC(=O)c1csc2c1CCCC2 | -0.326
O=C(Cc1ccc(-n2c(=O)c3ccccc3n(Cc3ccc(F)cc3)c2=O)cc1)NCC1CCCO1 (stereo not given) | -0.318

Compound | z-score
CCCc1[nH]nc2c1C(c1cccnc1)C(C#N)=C(N)O2 (stereo not given) | -0.285
COCCNC(=O)C(c1ccco1)N(C(=O)Cn1nnc2ccccc21)c1ccc(C)cc1C (stereo not given) | 0.146
CCN1C(=O)c2cccc3c(NC(=O)c4ccc(OC)c(OC)c4)ccc1c23 | -1.48
O=C(Nc1ccc(Cl)cc1)N1CCCN(Cc2ccc(F)cc2)C1 | 2.53
CCOc1cc(C2C(C(=O)c3ccccc3)=C(C(=O)OC)Nc3nnnn32)ccc1O (stereo not given) | 0.203
CCN(CC)CCOC(=O)c1ccc2c(c1)OCCO2 | 0.102
Cc1ccc(N2C(=O)CC(n3nc(C)cc3C)C2=O)cc1 (stereo not given) | -0.158
COC(=O)c1ccc(CSc2nnc(Nc3ccc(C)cc3)s2)o1 | -0.123
COc1ccc(-c2noc(-c3ccc(Cl)cc3)n2)cc1 | -0.685
CCn1c(C(=O)N2CCC(C(=O)NCc3cccs3)CC2)cc2sccc21 | 0.364
Cn1cnc2cc(NC(=O)c3ccc(Cl)cc3)ccc21 | 1.55
CC(=O)OCCCN1c2ccccc2Nc2nnc(-c3ccccc3)cc21 | -0.13
CCC1/C(=N\O)CC(c2ccco2)NC1c1ccco1 (stereo not given) | -0.0574
COc1ccc(OC)c(NC(=O)c2ccc(NS(C)(=O)=O)cc2)c1 | -0.288
Cn1c(=O)c2cn3c(c2n(C)c1=O)C(c1ccccc1)CC(c1ccccc1)=N3 (stereo not given) | -0.736
O=C(CN1C(=O)c2cccc3cccc1c23)N1CCN(c2ccccc2)CC1 | -0.0213
Cc1cc(N2CCN(C)CC2)nc2ccc(NC(=O)CCC(=O)NCc3ccco3)cc12 | -0.198
Cc1ccc2nc(SCc3nnc(-c4ccccc4[N+](=O)[O-])o3)c(C#N)cc2c1 | -0.113
CCOCCN1CCN(C(=O)CN2CCCC2=O)CC1 | 0.0619
CCC(C)Sc1nnc(CNC(=O)C23CC4CC(CC(C4)C2)C3)n1C1CCCCC1 (stereo not given) | 0.319
CC(=O)Nc1ccc(S(=O)(=O)N2CCN(Cc3ccccn3)CC2)cc1 | 0.197
CCNCCNC(=O)c1c(O)c2ccccc2n(CC)c1=O | -0.289
